# Results reported in the supplement of paper PMC12632987.
# Whole data set: some 4,500 sequences, median “median log2 fold change of GCK-ALFA target abundance (FLAG IP / Myc IP barcode read proportion)” near 0.078, cut for the lowest 2% near -0.6. Some of the results follow.
# B1: GBRAP_52_5913 (protein)
# chain: MEEEIREFVEKLIELIKEGKEEEARELAKKFVEEKNEEEIRIAIEVLVELVLESPEEELPYWEKAAELIAEALEEAGKDEVLADDLLARTAAAIYERLQK
# B2: GBRAP_52_6027 (protein)
# chain: MREEIRAVVEEALALVKAGDEAAAAALLEALVASLNEEEVRLLTEVLAELARRARPEDHEAVWRLTELAAAAMEKAGKDEVLADDLEARVAAALYEAELR
# B3: GBRAP_184_5084 (protein)
# chain: KVFEAEVEAETEEELFAKVDAVLDEAAKQKADLVVLVKAKGLDTETAIAIINKLGAAKKAGKVPNVTVGFDEEFTEEEIDKIVAAADAAGVKVVLPIKDE
# B4: GBRAP_14_3776 (protein)
# chain: MDKAIAIIKETAAEIVALLAEINPAKAAAFKAAVDAVTAATIAEIKATGDAIAAAEAGQAALVAAVRAILADEAPEVRARAEAVVRVEWGQAILELDELE
# B5: GBRAP_184_5052 (protein)
# chain: MTYERVIEAKNKEELKKKLEELKEEVKDHKGNLIVTVKIPKFTKEMIEILMEKMKEIKDEGYAKSITVGLDGDMSEEEVDLALELADKAGVKVVLALDEE
# B6: GBRAP_52_6300 (protein)
# chain: MREEAERLAERLIELAKAGRLDEARALLREIVATKSKEFLRLLAEVLAERAREADEETQDVIFEVMEMLADELLEGGYDEAFAGDLLALVARAMYEAELK
# B7: GBRAP_52_5975 (protein)
# chain: MREEMRRLAEEAVALMLAGDREGARALLEEIAETKTEEEITLFMEELAELAKTATPEERDAIVEVALLAEDIWLEAGFDEALADSNVARVAAAAYAAEQA
# B8: GBRAP_160_4006 (protein)
# chain: SEEAEKLIKEIKEIFEELKKDIEGLTPEERLTLAKGYAGEILQLAESSKVISDEAVDKIAEILDEFLEELEKNKNAPLEYWKKLIEETLKKIEEVIKEDS
# B9: GBRAP_43_5757 (protein)
# chain: SKELVEGALDFALLVAEDPNVSEETKVKAIIAALRLAADEGYLDKELLKKVIEAAAKNLSAESLKKIREEAERLAKEHPELAEKFKEAAELLEKAIKEKE
# B10: GBRAP_139_3704 (protein)
# chain: SALDEVLATARALTENMATDKEASLAAIVALIASLDEETAEAALRAIGEVLATFPLDEAEAYADELLERIEAEIDNEDKVDIAEAVLNGALARKAAAEEA
# B11: GBRAP_139_3718 (protein)
# chain: SAAEEKIEKAKEIVEKYKDDLEKLAKELAKLISEVDGETALEIVRAAAEELKDWSWEEWEEFIELLEKELKELGFDEDDVLAIKGEFEAVMAKHLMAKEA
# B12: GBRAP_184_5143 (protein)
# chain: TVLRVFIEAETVEEALEKAEKAFKEAKAKGAKLNLFIELKDATVEEVEELARRIRELVEEYGLTDANVTLVVEADEEEADEFIDVADRHGIRLVVALEEE
# B13: GBRAP_78_6679 (protein)
# chain: EVEEELEKAIEELNKAASLLSKLKTEEALDILGEVIDAAATAEEAYFGEADLKELEEALEKVKKALERVKKIDTPEAKEVAKELEEAAKHLEKAIKLLKE
# B14: GBRAP_172_5002 (protein)
# chain: GVTLVELDLRGLSREEAVARARAAVEAAAAAHDADLVVAIAADTQETVDAVTAAVRETAAALGRRVTVVADAVTTEAGIARIRAAARAEAIDLAYEQEEE
# B15: GBRAP_74_6562 (protein)
# chain: SEEMIKKIKEVAKTKSLKEFSEFILENIDELDEEALLVAFKELLAKLEEEKDSVTPEELEIVSEAAAALADKAFTSEASEETLKAAAALLTAVVELEKKA
# B16: GBRAP_78_6736 (protein)
# chain: EIEELIDKALEELNRAARLAQQFPLEEQTELLDLIIDASTLLEEAEEEGFDLKLLEEALKKLKEALKLAKKLKTPLAEKLAKELEEAIKLVEKAIKLVKE
# B17: GBRAP_9_7132 (protein)
# chain: REELVEKMAEVVLDMIEDIAEAVPEVSEELKEKFKERVKKLKEELLKDKSATKEEIKERFIKLVEEIKEEVKKIVSPELAKIVDAIALTAIEEIEEIAEE
# B18: GBRAP_9_7166 (protein)
# chain: SKEKKEKILKIVKDALKEIIELVPEEVKPLAEKLAKEALKKLEKAVKDENTTVEEFAKKAKEELKEVAEELKKKVDPETAKQIEAVVLTAEEEIEEIVEE
# B19: GBRAP_160_4343 (protein)
# chain: SEEKEKLLKFVDEEFEETKELIEGESIEQRKILISGMFGEILMELSESPIISDELEDEVKEIEDELLDYLDENPDLSEEEIKELIEEAREKVKEAIEKYT
# B20: GBRAP_96_7096 (protein)
# chain: MLEEAEALVRELIAALDTDPERARALAERLLEFPVEVVTEAIVRVVKDPADAAKLAELLLELGDEKAEEVLLEAAEKAPGDISKAIIDAMQAYEEAKEAA
# B21: GBRAP_9_7126 (protein)
# chain: KKELIEKLKEVVLDMIEEISEVVPELTEEQKEEFKEKVEELEEYALEDESLTPEEIKELFLELIEEIEEDVKEIVDEELKKLVEAIALTAEEEIEEIVEE
# B22: GBRAP_14_3790 (protein)
# chain: MEEIKKILEEAIKEILELIADLPPDKREALRKALEAIAEKTLETIKKTGDLDAALDAMLAEAVAATEAILADLPPETRAEAVAIVRTELSNAEVEIDEAA
# B23: GBRAP_45_5808 (protein)
# chain: SAEHEAALAAALAALERAIAELERLAEEDPERWAPLLARTRALLARLREHRDDAEALEALAREVDELLKEALADPAATGELLDALLEAGNHIREAAELLK
# B24: GBRAP_95_7037 (protein)
# chain: DDDRLALESAIEVAITLADLGQAEGAARAALEARALLEEGGVIPIDAELAAELIRVIEEVLVDVLPAADVAALLEAIRAAAEDPEVRARADAALAAVRAR
# B25: GBRAP_11_2765 (protein)
# chain: MKEKKKEIAEKAKELAELLQKILKEGVDDEELLKKAEEQLKELTELVEKYGDEAQKKLAEILKEELEEAKKDPKNREQYLQNAKTTADVLEGDFLLEAEE
# B26: GBRAP_83_6890 (protein)
# chain: AEEITVGAAADHVAEAVEAAIDLATEEGYDVTLDVEVTPESVPALEAGLDRAAAAGVKVDLEVTVVAATEAEAEATAARIRAHAEASGAASSVEVTTEVR
# B27: GBRAP_52_5884 (protein)
# chain: SLEEAIELLKKMIKAVAEGKKEEAEKIAKEIVEKFDDETIIEAVEILAKEIKEKSLEEAEAFYEAMELLSKVLIEMGGDENIASYIEAIAGAALYEVEQK
# B28: GBRAP_160_4205 (protein)
# chain: SEKIEEIIKSLREETEEVIAALDEVSVEEAAVFADVEYGEVLMEAVELGEENEEIEDIIAKAADEVVAYLKAAADAPVEELKARIREITEKAIEEIKKAG
# B29: GBRAP_125_3141 (protein)
# chain: MKEALIELAEALAEALGFSEEEIAEIRRLAEASDPAQMIVAILLAAGFEELAELAEKVLPKLTEEEIEELTELAKSMKDKSKEELEKALLEKLKELEKKL
# Biological target: GABARAP, O95166
# Sequence (O95166 whole entry, the tested form may be a part): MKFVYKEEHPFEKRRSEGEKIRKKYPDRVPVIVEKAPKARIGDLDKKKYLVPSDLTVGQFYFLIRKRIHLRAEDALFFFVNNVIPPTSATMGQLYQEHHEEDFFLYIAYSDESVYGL
# Assay: median log2 fold change of GCK-ALFA target abundance (FLAG IP / Myc IP barcode read proportion) (log2 ratio); each designed protein is fused to an ALFA-tag nanobody in HEK293 cells to bring the named protein to FLAG-tagged glucokinase (GCK); Myc marks an untargeted standard; higher = target protein stabilised (more abundant)
# Settings: target protein: 3xFLAG-MCP-GCK-ALFA reporter; HEK293 landing pad (RPLP)
# In short: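 Binders fused to an ALFA nanobody were recombined as a library into HEK293 landing-pad cells, which were induced with 2 μg mL^−1 doxycycline and then transfected to express a FLAG-tagged target and a Myc-tagged standard. After 48 h, circular RNA barcodes recovered by anti-FLAG and anti-Myc immunoprecipitation of lysates were reverse transcribed, amplified and sequenced. Each binder's target abundance is the median log2 ratio of FLAG to Myc barcode read proportions, from barcodes present at ≥10^−7 in both replicates, binders carrying ≥3 barcodes per replicate, a 10^−6 pseudocount and pooled replicates.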
row,Binder,median log2 fold change
1,B1,0.2
2,B2,0.0078
3,B3,-0.0753
4,B4,0.0676
5,B5,0.22
6,B6,-0.146
7,B7,0.107
8,B8,-0.00151
9,B9,0.404
10,B10,0.0396
11,B11,0.0839
12,B12,0.129
13,B13,0.3
14,B14,0.155
15,B15,0.0424
16,B16,-0.0442
17,B17,-0.0475
18,B18,0.398
19,B19,0.0937
20,B20,0.123
21,B21,-0.561
22,B22,0.2
23,B23,0.273
24,B24,0.0452
25,B25,0.205
26,B26,0.0697
27,B27,-0.0634
28,B28,-0.283
29,B29,0.154
